# The whole screen tested about 310,000 compounds, of which about 14,000 (4.5%) showed an effect of 50% or more. Effects have a minus sign here. The list shows a part of the results.
# Target: human ether-à-go-go-related gene (hERG) potassium channel (human, UniProt Q12809)
# Test: primary screen, population patch clamp on CHO cells stably expressing hERG
# 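Also: peak tail current of the secondary pulse compared with the same well before compound.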
# human ether-à-go-go-related gene (hERG) potassium channel, sequence (Q12809 whole entry, looked up): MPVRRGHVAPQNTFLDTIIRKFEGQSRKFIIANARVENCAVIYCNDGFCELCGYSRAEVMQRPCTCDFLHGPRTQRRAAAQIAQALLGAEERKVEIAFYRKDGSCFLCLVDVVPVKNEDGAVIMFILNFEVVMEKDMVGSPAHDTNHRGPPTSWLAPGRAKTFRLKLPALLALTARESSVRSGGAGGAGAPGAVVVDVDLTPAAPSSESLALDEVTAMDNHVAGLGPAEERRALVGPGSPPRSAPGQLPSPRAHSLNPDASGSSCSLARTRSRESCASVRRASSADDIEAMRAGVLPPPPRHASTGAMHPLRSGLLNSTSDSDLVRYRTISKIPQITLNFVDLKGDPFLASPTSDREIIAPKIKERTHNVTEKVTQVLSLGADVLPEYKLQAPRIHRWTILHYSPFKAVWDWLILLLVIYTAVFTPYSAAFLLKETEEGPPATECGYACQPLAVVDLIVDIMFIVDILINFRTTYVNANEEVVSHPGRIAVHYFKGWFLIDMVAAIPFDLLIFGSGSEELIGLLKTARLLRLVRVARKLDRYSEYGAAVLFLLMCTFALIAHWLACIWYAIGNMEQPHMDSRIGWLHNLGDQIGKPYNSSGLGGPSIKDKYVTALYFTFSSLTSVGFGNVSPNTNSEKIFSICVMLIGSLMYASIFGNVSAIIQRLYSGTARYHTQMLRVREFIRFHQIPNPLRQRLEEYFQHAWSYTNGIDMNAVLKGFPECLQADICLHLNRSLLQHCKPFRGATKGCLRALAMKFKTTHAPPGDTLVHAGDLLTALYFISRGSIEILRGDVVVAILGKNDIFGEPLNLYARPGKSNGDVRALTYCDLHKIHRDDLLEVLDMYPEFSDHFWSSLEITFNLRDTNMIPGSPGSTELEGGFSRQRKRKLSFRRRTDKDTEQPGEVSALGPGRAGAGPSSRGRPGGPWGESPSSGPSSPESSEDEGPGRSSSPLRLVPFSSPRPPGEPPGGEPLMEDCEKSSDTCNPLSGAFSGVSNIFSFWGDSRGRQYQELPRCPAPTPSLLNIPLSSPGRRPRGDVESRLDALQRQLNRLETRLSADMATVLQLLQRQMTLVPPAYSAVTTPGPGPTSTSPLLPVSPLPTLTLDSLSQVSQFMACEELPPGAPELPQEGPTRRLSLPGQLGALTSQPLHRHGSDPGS
row,SMILES,"hERG current change (%, negative = inhibition) at 10uM"
1,COc1ccc(N=C2C(=Nc3ccc(OC)cc3)N(c3ccc(OC)cc3)C(=S)N2C(=O)c2ccc(OC)cc2)cc1,-15.1%
2,CC(C)(C)NS(=O)(=O)c1ccc(CCC(=O)N2CCCC2)cc1,19.8%
3,COc1ccc(S(=O)(=O)NC2CC(C)(C)NC(C)(C)C2)cc1C(C)C,-15.1%
4,COCCNc1nc(C)cc(-c2cc(C(=O)NC3CCCC3)on2)n1,-0.263%
5,O=C1C2CC=C(Cl)CC2C(=O)N1CN(Cc1ccco1)CN1C(=O)C2CC=C(Cl)CC2C1=O (stereo not shown),8.81%
6,COc1ccccc1/C=C/C(=O)N1CCCC1,0.997%
7,CN(C)C(=O)c1cc(Br)ccc1Cl,8.23%
8,O=C(CCC(=O)N1CCOc2ccccc21)Nc1ccc(F)cc1F,-7.25%
9,Cc1cc(=O)[nH]c(SCC(=O)Nc2ccc(Cl)cn2)n1,18.5%
10,COc1cc(C2NC(=O)NC(C)=C2C(=O)OCc2ccc(C)cc2)cc(OC)c1O (stereo not shown),-14.6%
11,CCOC(=O)c1[nH]c(C)c(C(=O)OCC(=O)N2CCc3ccccc32)c1C,6.23%
12,Cc1ccc2c(CN3CCN(Cc4ccccc4)CC3)cc(=O)oc2c1C,-55.3%
13,O=C(CN1CCN(c2ccccc2)CC1)NC(=O)NCc1ccco1,9.72%
14,O=C(Nc1ccccc1OC(F)F)C1CC(=O)N(Cc2ccccc2)C1 (stereo not shown),10%
15,COCc1nnc(NC(=O)CS(=O)(=O)Cc2ccccc2)s1,20.4%
16,CCCn1nc(NS(=O)(=O)c2ccccc2)c2cc3ccccc3nc21,0.823%
17,CCOC(=O)CCSc1nc(C)c2cc(C)ccc2n1,3.63%
18,CC1=NN(C(=O)c2ccc(Br)cc2)C(O)(c2ccccc2)C1 (stereo not shown),0.159%
19,N#CCc1cccnc1Sc1ccc(Cl)cc1,4.17%
20,CN(C)CCCNCCNC(=O)/C=N\O.Cl,-65.4%
21,O=C(O)c1ccccc1-c1ccccc1C(=O)Nc1cccc(O)c1,20.2%
22,Cc1cccc(NC(=S)NNC(=O)c2csc(C(C)C)c2)c1,2.52%
23,CCCCN(C(=O)c1cc(CC)c(C)s1)c1c(N)n(CCC)c(=O)[nH]c1=O,-20.8%
24,CCN(CC)S(=O)(=O)c1ccc2c(c1)c(=O)c(C(=O)NCc1cccs1)cn2C,-2.97%
25,CCOc1ccc(OCCC(=O)N2CCN(S(=O)(=O)c3ccc(OCC)cc3)CC2)cc1,-6.09%

# From paper PMC4336329 (PLoS ONE, 2015)
